No constants are given. Whether binding was seen depends on the method and setting. For part of these data: Binding seen in cells or lysates may run through a third protein. Some binding calls cover weakened binding; strength is not graded here. For part of these data: Tags and fused reporters may be left off the sequences shown.
Tests used:
[1] = molecular target: T1, Flag-tagged full-length USP36 (wild type) (human) (UniProt Q9P275); experiment: co-IP; lysates of the isolated nucleolar fraction of HeLa cells expressing Flag-USP36; anti-Flag immunoprecipitation, immunoblot with anti-EXOSC10
T1 sequence: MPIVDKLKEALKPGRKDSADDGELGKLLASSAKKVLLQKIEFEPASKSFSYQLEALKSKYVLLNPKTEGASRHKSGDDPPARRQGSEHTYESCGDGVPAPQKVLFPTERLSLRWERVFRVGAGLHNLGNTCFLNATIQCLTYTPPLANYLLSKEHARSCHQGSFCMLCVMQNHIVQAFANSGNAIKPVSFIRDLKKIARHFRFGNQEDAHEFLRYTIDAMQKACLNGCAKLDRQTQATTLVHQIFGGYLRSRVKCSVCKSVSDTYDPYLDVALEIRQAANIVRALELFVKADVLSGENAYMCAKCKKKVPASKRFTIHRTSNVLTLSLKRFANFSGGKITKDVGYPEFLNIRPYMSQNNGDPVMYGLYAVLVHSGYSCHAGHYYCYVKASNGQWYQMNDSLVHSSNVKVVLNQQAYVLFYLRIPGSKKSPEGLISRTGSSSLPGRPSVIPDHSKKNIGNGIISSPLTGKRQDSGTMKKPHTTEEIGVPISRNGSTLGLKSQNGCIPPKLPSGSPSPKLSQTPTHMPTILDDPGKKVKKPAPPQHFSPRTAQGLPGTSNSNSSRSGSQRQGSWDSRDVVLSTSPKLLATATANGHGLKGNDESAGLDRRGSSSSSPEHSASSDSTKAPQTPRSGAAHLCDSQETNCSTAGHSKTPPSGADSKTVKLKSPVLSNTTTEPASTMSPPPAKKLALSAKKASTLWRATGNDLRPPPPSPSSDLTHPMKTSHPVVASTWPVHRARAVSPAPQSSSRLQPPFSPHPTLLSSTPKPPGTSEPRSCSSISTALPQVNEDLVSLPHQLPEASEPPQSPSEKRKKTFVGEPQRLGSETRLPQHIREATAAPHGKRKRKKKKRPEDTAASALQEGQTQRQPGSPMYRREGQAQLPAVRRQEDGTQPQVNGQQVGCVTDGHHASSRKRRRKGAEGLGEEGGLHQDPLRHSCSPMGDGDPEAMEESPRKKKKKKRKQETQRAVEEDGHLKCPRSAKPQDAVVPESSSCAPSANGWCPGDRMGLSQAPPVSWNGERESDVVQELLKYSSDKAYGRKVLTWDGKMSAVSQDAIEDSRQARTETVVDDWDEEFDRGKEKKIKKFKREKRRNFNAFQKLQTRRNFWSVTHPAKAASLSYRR

[2] = molecular target: T2, endogenous USP36 (human (endogenous in H1299, 293, HeLa)) (UniProt Q9P275); experiment: co-IP; endogenous proteins; 293 (and HeLa) lysates immunoprecipitated with anti-USP36 antibody (Proteintech), immunoblot with anti-EXOSC10
T2 sequence: T1 sequence

[3] = molecular target: T1, Flag-tagged full-length USP36 (wild type) (human); experiment: SEC; nuclear extracts of 293 cells expressing Flag-USP36 on Superose 6 10/300 GL in PBS pH 7.2; fractions analysed by immunoblot
[4] = molecular target: T3, Flag-tagged USP36 deletion mutant, middle region (amino acids 421-800) (human) (UniProt Q9P275); experiment: co-IP; anti-Flag immunoprecipitation from lysates of transfected 293, HeLa or H1299 cells (NP-40 lysis buffer), immunoblot
T3 sequence: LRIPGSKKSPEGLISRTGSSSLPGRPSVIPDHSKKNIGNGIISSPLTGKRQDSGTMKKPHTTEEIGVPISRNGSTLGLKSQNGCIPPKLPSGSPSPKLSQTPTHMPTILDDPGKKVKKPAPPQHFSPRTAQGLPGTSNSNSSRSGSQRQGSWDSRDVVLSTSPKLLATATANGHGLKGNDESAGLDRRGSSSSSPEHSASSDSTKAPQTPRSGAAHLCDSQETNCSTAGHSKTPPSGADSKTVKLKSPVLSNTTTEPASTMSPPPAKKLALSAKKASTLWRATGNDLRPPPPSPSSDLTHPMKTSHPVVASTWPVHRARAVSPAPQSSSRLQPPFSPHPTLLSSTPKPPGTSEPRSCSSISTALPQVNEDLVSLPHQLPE

[5] = molecular target: T4, Flag-tagged USP36 deletion mutant, N-terminal USP domain-containing region (amino acids 1-420) (human) (UniProt Q9P275); experiment: as above
T4 sequence: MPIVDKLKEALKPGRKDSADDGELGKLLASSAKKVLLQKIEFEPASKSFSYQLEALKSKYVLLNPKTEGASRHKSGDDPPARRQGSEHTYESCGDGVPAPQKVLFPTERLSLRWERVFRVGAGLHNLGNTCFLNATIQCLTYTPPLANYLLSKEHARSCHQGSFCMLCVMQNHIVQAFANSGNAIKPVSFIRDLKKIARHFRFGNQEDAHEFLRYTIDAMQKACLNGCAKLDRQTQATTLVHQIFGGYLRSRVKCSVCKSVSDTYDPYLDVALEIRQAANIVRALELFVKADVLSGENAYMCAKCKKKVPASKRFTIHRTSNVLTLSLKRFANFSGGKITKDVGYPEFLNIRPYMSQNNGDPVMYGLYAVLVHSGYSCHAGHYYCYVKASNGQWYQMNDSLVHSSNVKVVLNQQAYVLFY

[6] = molecular target: T1, Flag-tagged full-length USP36 (wild type) (human); experiment: as above
[7] = molecular target: T5, Flag-tagged USP36 deletion mutant, C-terminal NoLS-containing region (amino acids 801-1121) (human) (UniProt Q9P275); experiment: as above
T5 sequence: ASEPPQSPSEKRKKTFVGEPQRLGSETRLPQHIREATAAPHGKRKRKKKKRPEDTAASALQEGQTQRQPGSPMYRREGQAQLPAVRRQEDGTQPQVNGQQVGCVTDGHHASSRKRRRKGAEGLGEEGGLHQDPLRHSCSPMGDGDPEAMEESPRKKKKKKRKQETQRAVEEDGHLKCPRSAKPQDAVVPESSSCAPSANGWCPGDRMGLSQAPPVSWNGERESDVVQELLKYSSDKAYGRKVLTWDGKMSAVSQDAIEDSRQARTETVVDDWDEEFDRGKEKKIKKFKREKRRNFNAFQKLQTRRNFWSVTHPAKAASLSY

[8] = molecular target: T1, Flag-tagged full-length USP36 (wild type) (human); experiment: co-IP; anti-Flag immunoprecipitation in the presence of 100 μg/ml RNase A and 100 U/ml RNase T1; 293 and HeLa cells transfected with Flag-USP36; cells of Supplementary Figures S2C, D not told
[9] = molecular target: T5, Flag-tagged USP36 deletion mutant, C-terminal NoLS-containing region (amino acids 801-1121) (human); experiment: as above

B1: endogenous EXOSC10 (enzyme, UniProt Q01780 1-885)
chain: MAPPSTREPRVLSATSATKSDGEMVLPGFPDADSFVKFALGSVVAVTKASGGLPQFGDEYDFYRSFPGFQAFCETQGDRLLQCMSRVMQYHGCRSNIKDRSKVTELEDKFDLLVDANDVILERVGILLDEASGVNKNQQPVLPAGLQVPKTVVSSWNRKAAEYGKKAKSETFRLLHAKNIIRPQLKFREKIDNSNTPFLPKIFIKPNAQKPLPQALSKERRERPQDRPEDLDVPPALADFIHQQRTQQVEQDMFAHPYQYELNHFTPADAVLQKPQPQLYRPIEETPCHFISSLDELVELNEKLLNCQEFAVDLEHHSYRSFLGLTCLMQISTRTEDFIIDTLELRSDMYILNESLTDPAIVKVFHGADSDIEWLQKDFGLYVVNMFDTHQAARLLNLGRHSLDHLLKLYCNVDSNKQYQLADWRIRPLPEEMLSYARDDTHYLLYIYDKMRLEMWERGNGQPVQLQVVWQRSRDICLKKFIKPIFTDESYLELYRKQKKHLNTQQLTAFQLLFAWRDKTARREDESYGYVLPNHMMLKIAEELPKEPQGIIACCNPVPPLVRQQINEMHLLIQQAREMPLLKSEVAAGVKKSGPLPSAERLENVLFGPHDCSHAPPDGYPIIPTSGSVPVQKQASLFPDEKEDNLLGTTCLIATAVITLFNEPSAEDSKKGPLTVAQKKAQNIMESFENPFRMFLPSLGHRAPVSQAAKFDPSTKIYEISNRWKLAQVQVQKDSKEAVKKKAAEQTAAREQAKEACKAAAEQAISVRQQVVLENAAKKRERATSDPRTTEQKQEKKRLKISKKPKDPEPPEKEFTPYDYSQSDFKAFAGNSKSKVSSQFDPNKQTPSGKKCIAAKKIKQSVGNKSMSFPTGKSDRGFRYNWPQR
For B1, the binding [1] was “binds”, the binding [2] was “binds” and the binding [3] was “binds”. For the same binder, the binding [4] was “no binding”, the binding [5] was “no binding” and the binding [6] was “binds”. The binding [7] was “binds”, the binding [8] was “binds” and the binding [9] was “binds”.

Source: PMC10164564
